Laboratory results as given in patent US20200390902A1, “Antibody-Drug Conjugates Targeted at Human Aspartyl-(Asparaginyl)-B-Hydroxylase (HAAH)” (Panacea Pharmaceuticals, Inc., priority 2017, published 2020).
“Also recorded” adds a separate entry of the source. Read-outs that look alike come from different tables or passages of the source.

How the values were obtained:
MOLM-14 cells = test: MTS cell viability assay, MOLM-14; assay type: cell-based, human; settings: MOLM-14, 24 hours; for IC50: read-out: IC50, MOLM-14 growth
Method: Human H460 cells were obtained from the American Type Culture Collection (ATCC; Manassas, Va., U.S.A.). […] Human MOLM-14 cells were obtained from Dr. Ashkan Emadi at University of Maryland (Baltimore. Md., U.S.A.). The MOLM-14 cells were seeded at a density of 5000 cells/well in 96-well plates and cultured in RPMI 1640 with 20% heat-inactivated FBS. The H460 and MOLM-14 cells were treated with naked antibodies or ADCs for 24 hours, starting at the time of cell seeding. By the end of experiment, the cell viability for both cell lines was determined quantitatively using CELL TITER 96 AQUOUS ONE SOLUTION cell proliferation assay, a colorimetric method for determining the number of viable cells (MTS; Promega, Madison. Wis., U.S.A.; Catalog No. G3582).

H460 cells [1] = test: Lactate dehydrogenase (LDH) release assay, H460; settings: read-out: LC50 of LDH; H460, 72 hours, reaction DAR 10:1
Method: (§1) FIG. 6 depicts the effects of linker and payload on cytotoxicity to cancer cell H460. […] The Log of the antibody concentration in nM is shown on the X axis.
HAAH is highly expressed on the surface of cancer cells, but not on normal adult human cells. The specificity of SNS622-MC-DM1 was examined using human lung carcinoma cell line H460 and LONZA NHLF, a normal human lung fibroblasts (NHLF) cell line. Both cell lines were cultured in HG-DMEM (ThermoFisher Scientific Catalog No. 11965-092) supplemented with 20 mM HEPES (4-(2-hydroxyethyl)-1-piperazineethanesulfonic acid), 4 mM L-glutamine, 1 mM sodium pyruvate, 1× non-essential amino acids, 50 μg/ml gentamicin and 10% fetal bovine serum (FBS). H460 and NHLF cells were seeded into 96-well plates at 5,000 cells per well, following a 2-day FBS deprivation, and released by culture in complete culture medium containing 10% FBS. The cells were allowed to grow for 2 days after releasing, and then treated with or without 32 nM SNS622-MC-DM1. By 72 hours post treatment, cell death was determined by observing cell morphology using a phase contrast microscope at 150×.
The cell death was also quantified using lactate dehydrogenase (LDH) releasing assay. For the LDH assay, a mixture of a 35 μl aliquot of culture medium and 17.5 μl of substrate, enzyme, and dye solutions (Sigma, St. Louis, Mo., U.S.A.) was incubated at room temperature for 30 minutes, and absorbance was measured at 490 nm using a plate reader (ELx805; BioTek, Winooski, Vt., U.S.A.).

H460 cells [2] = test: MTS cell viability assay, H460; assay type: cell-based, human; settings: for Effect on H460 cell viability / growth (MTS) / EC50: H460, 24 hours; for EC50: read-out: EC50, killing of H460 cells (MTS)
Method: Human H460 cells were obtained from the American Type Culture Collection (ATCC; Manassas, Va., U.S.A.). The H460 cells were seeded at a density of 5,000 cells/well in 96-well plates and cultured in HG-DMEM (ThermoFisher Scientific, Waltham. Mass., U.S.A.; Catalog No. 11965-092) supplemented with 20 mM HEPES, 4 mM L-glutamine, 1 mM sodium pyruvate, 1× non-essential amino acids, 50 μg/ml gentamicin, and 10% fetal bovine serum (FBS)). Human MOLM-14 cells were obtained from Dr. Ashkan Emadi at University of Maryland (Baltimore. Md., U.S.A.). The MOLM-14 cells were seeded at a density of 5000 cells/well in 96-well plates and cultured in RPMI 1640 with 20% heat-inactivated FBS. The H460 and MOLM-14 cells were treated with naked antibodies or ADCs for 24 hours, starting at the time of cell seeding. By the end of experiment, the cell viability for both cell lines was determined quantitatively using CELL TITER 96 AQUOUS ONE SOLUTION cell proliferation assay, a colorimetric method for determining the number of viable cells (MTS; Promega, Madison. Wis., U.S.A.; Catalog No. G3582).
as §1
The bioactivities of these SNS622 ADCs were examined using H460 cells. The cells were treated for 48 hours with these SNS622-MC-DM1s, or with SNS622 as control. Cell viability was evaluated at the end of the experiment using an MTS assay.
SNS622-MC-vc-PAB-DM1 and SNS622-MC-MMAE were also synthesized under different initial DAR ratios of 2.5:1, 5:1 and 10:1 at fixed pH8. The 460 cells were treated for 72 hours with ADCs SNS622-MC-vc-PAB-DM1 at with OAR 2.5:1; 5:1; and 10:1, or SNS622-MC-MMAE at with DAR 2.5:1; 5:1; and 10:1. The cell viability and cell death were separately quantified with […] and lactate dehydrogenase (LDH) release assays. FIG. 8A depicts a graph of the MTA quantification results expressed as percentage of untreated control. FIG. 8B depicts a graph of the LDH assay results expressed as percentage of 512 nM DM1-elicited maximal LDH release. The Log of the antibody concentration in nM is shown on the X axis.

| Molecule | Effect on MOLM-14 cell viability / growth (MTS) (MOLM-14 cells) | IC50 (MOLM-14 cells) [nM] | CC50 (H460 cells [1]) [nM] | Effect on H460 cell viability / growth (MTS) (H460 cells [2]) | EC50 (H460 cells [2]) [nM] | IC50 (H460 cells [2]; H460, 72 hours, reaction DAR 10:1, read-out: IC50 of MTS) [nM] | IC50 (H460 cells [2]; stated for both cancer cell lines (H460 and MOLM-14), read-out: IC50, suppressing cell growth) [nM] |
| --- | --- | --- | --- | --- | --- | --- | --- |
| SNS622-MC-vc-PAB-MMAE (conjugate, MC-vc-PAB-MMAE on cysteine thiols of reduced disulfide bonds, positions not given; reaction DAR 10:1, final DAR 6.31; MC-vc-PAB-MMAE on cysteine thiols of reduced disulfide bonds, positions not state) heavy: QVQLQQSGPGLVKPSQTLSLTCAISGDSVSSNSAAWNWIRQSPSRGLEWLGRTYYRSKWYNDYAVSVKSRITINPDTSKNQFSLQLNSVTPEDTAVYYCARTGYSSSWVVNFDYWGQGTLVTVSSASTKGPSVFPLAPSSKSTSGGTAALGCLVKDYFPEPVTVSWNSGALTSGVHTFPAVLQSSGLYSLSSVVTVPSSSLGTQTYICNVNHKPSNTKVDKRV[human IgG1 Fc left out] light: QPVLTQSPSASGTPGQRVTISCSGSSSNIGSNYVYWYQQLPGTAPKLLIYKNNQRPSGVPDRFSGSKSGTAASLAISGLQSEDEADYYCAAWDDSLRGYVFGTGTKLTVLGQPKAAPSVTLFPPSSEELQANKATLVCLISDFYPGAVTVAWKADSSPVKAGVETTTPSKQSNNKYAASSYLSLTPEQWKSHRSYSCQVTHEGSTVEKTVAPTECS | inhibit in vitro cell growth of both H460 and MOLM-14 | ~50 | 0.22 | decreased the H460 cell viability; also recorded: inhibit in vitro cell growth of both H460 and MOLM-14 | ~60 | 77 | 60 |
| SNS622-MC-PEG4-vc-PAB-DMEA-DUO: SNS622 conjugated to duocarmycin (DUO) by a combined linker of MC, PEG4, vc-PAB and DMEA (conjugate, MC-PEG4-vc-PAB-DMEA-duocarmycin on cysteine thiols of reduced disulfide bonds, positions not given; reaction DAR 2.2:1, final DAR 1.92:1; MC-PEG4-vc-PAB-DMEA-duocarmycin on cysteine thiols of reduced) heavy: QVQLQQSGPGLVKPSQTLSLTCAISGDSVSSNSAAWNWIRQSPSRGLEWLGRTYYRSKWYNDYAVSVKSRITINPDTSKNQFSLQLNSVTPEDTAVYYCARTGYSSSWVVNFDYWGQGTLVTVSSASTKGPSVFPLAPSSKSTSGGTAALGCLVKDYFPEPVTVSWNSGALTSGVHTFPAVLQSSGLYSLSSVVTVPSSSLGTQTYICNVNHKPSNTKVDKRV[human IgG1 Fc left out] light: QPVLTQSPSASGTPGQRVTISCSGSSSNIGSNYVYWYQQLPGTAPKLLIYKNNQRPSGVPDRFSGSKSGTAASLAISGLQSEDEADYYCAAWDDSLRGYVFGTGTKLTVLGQPKAAPSVTLFPPSSEELQANKATLVCLISDFYPGAVTVAWKADSSPVKAGVETTTPSKQSNNKYAASSYLSLTPEQWKSHRSYSCQVTHEGSTVEKTVAPTECS | inhibit in vitro cell growth of both H460 and MOLM-14 | ~60 |  | decreased the H460 cell viability; also recorded: inhibit in vitro cell growth of both H460 and MOLM-14 | ~300 |  |  |
| SNS622-MC-MMAE (conjugate, MC-MMAE on cysteine thiols of reduced disulfide bonds, positions not given; reaction DAR 10:1 gives final DAR 5.72 (also made at 2.5:1 and 5:1); MC-MMAE on cysteine thiols of reduced disulfide bonds,) heavy: QVQLQQSGPGLVKPSQTLSLTCAISGDSVSSNSAAWNWIRQSPSRGLEWLGRTYYRSKWYNDYAVSVKSRITINPDTSKNQFSLQLNSVTPEDTAVYYCARTGYSSSWVVNFDYWGQGTLVTVSSASTKGPSVFPLAPSSKSTSGGTAALGCLVKDYFPEPVTVSWNSGALTSGVHTFPAVLQSSGLYSLSSVVTVPSSSLGTQTYICNVNHKPSNTKVDKRV[human IgG1 Fc left out] light: QPVLTQSPSASGTPGQRVTISCSGSSSNIGSNYVYWYQQLPGTAPKLLIYKNNQRPSGVPDRFSGSKSGTAASLAISGLQSEDEADYYCAAWDDSLRGYVFGTGTKLTVLGQPKAAPSVTLFPPSSEELQANKATLVCLISDFYPGAVTVAWKADSSPVKAGVETTTPSKQSNNKYAASSYLSLTPEQWKSHRSYSCQVTHEGSTVEKTVAPTECS |  |  | 16 |  |  |  |  |
| SNS622-MC-vc-PAB-DM1 (conjugate, MC-vc-PAB-DM1 on cysteine thiols of reduced disulfide bonds, positions not given; reaction DAR 10:1 gives final DAR 6.56 (also made at 2.5:1 and 5:1); MC-vc-PAB-DM1 on cysteine thiols of reduced disu) heavy: QVQLQQSGPGLVKPSQTLSLTCAISGDSVSSNSAAWNWIRQSPSRGLEWLGRTYYRSKWYNDYAVSVKSRITINPDTSKNQFSLQLNSVTPEDTAVYYCARTGYSSSWVVNFDYWGQGTLVTVSSASTKGPSVFPLAPSSKSTSGGTAALGCLVKDYFPEPVTVSWNSGALTSGVHTFPAVLQSSGLYSLSSVVTVPSSSLGTQTYICNVNHKPSNTKVDKRV[human IgG1 Fc left out] light: QPVLTQSPSASGTPGQRVTISCSGSSSNIGSNYVYWYQQLPGTAPKLLIYKNNQRPSGVPDRFSGSKSGTAASLAISGLQSEDEADYYCAAWDDSLRGYVFGTGTKLTVLGQPKAAPSVTLFPPSSEELQANKATLVCLISDFYPGAVTVAWKADSSPVKAGVETTTPSKQSNNKYAASSYLSLTPEQWKSHRSYSCQVTHEGSTVEKTVAPTECS |  |  | 55 |  |  |  |  |
